# Measured values from PubChem BioAssay AID338 (DTP/NCI, 2004).
# Toxic doses and inconclusive results are not listed. For part of its entries the source gives two or more results. The list is limited to them. There may be further records. The values listed for one entry are repeated measurements (runs, samples, wells, individuals or studies).
# Test system: BDF1 mice, P388 leukemia (terephthalanilide-resistant), survival T/C
# Experiment: NCI In Vivo Anticancer Drug Screen. Data for tumor model P388 Leukemia resistant to A Terephthalanilide; NSC 38280 (intraperitoneal) in B6D2F1 (BDF1) mice
# Conditions: endpoint: median survival time; dose: 45.0 mg/kg/injection; schedule: Q01DX010 (ip); vehicle: saline; higher = longer survival
# Procedure: The antitumor activity of compounds was measured in mice bearing transplantable tumors. Survival or tumor size were measured and the results are expressed as the measurement made in the treated group (T) divided by the measurement made in the vehicle treated control group (C). The tumor model used in this assay is P388 Leukemia resistant to A Terephthalanilide; NSC 38280 (intraperitoneal) in B6D2F1 (BDF1) mice
smiles,measurement,value
CNc1nc(Nc2ccc(C3=NCCN3)cc2)nc(Nc2ccc(C3=NCCN3)cc2)n1,T/C,94 % of control and 181 % of control
